# In the supplement of paper PMC3334620:
# The full ranking holds about 33,000 sequences; the median of “E-score (-0.5 to 0.5)” is about -0.016, and the highest 2% start at about 0.31. The list shows a part of the results.
# Target: Cst6 (UniProt P40535)
# Test: PBM E-score (8-mer binding enrichment) (E-score (-0.5 to 0.5)); higher = stronger / more preferred TF binding; most listed sequences are background and not binding sites
# Conditions: protein concentration: 200 nM; construct: GST-DNA-binding domain
# Procedure, shortened: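 Yeast transcription factors, full-length or as DNA-binding domains, were expressed with a GST tag using PURExpress in vitro transcription/translation. At about 100-200 nM they were applied to universal all-10-mer Agilent arrays, double-stranded by primer extension on fresh or once-stripped slides. Fluorescent anti-GST detected bound protein, and masliner normalised the scans. E-scores for ungapped eight-base words, pooled with reverse complements, came from the Universal PBM Analysis Suite.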
row,Sequence,PBM E-score
1,CCGACTAC,-0.163
2,ACGAAGCG,-0.0135
3,CAAAGTGG,-0.196
4,AGTACGTA,0.267
5,GGTAGACC,-0.267
6,GTGACCGA,-0.00972
7,GACCGACC,-0.17
8,AAGAGGCC,-0.151
9,AGCGCCCT,0.113
10,GTTCGTGA,-0.143
11,CAACAGCA,0.00053
12,CAAACGAG,0.0101
13,ATATTGAA,0.168
14,AATCATAG,0.189
15,GACCGGAC,-0.317
16,CTCTAATC,-0.0876
17,CACGAGTC,-0.217
18,ACCTTCGC,-0.0947
19,CAGCGGAG,-0.197
20,ATTCTTTG,0.132
21,ATTAAGGA,-0.0459
22,GCCATTCA,0.0125
23,AGCTGCGA,-0.198
24,GCTGATGA,0.278
25,CTAGTGAA,-0.0768

row,Sequence,PBM E-score
1,CCAGGGAC,-0.253
2,ATGTCTTC,-0.153
3,ACCCAAAC,0.0543
4,ATCCCCAC,-0.179
5,AAAGGTGG,0.0223
6,ACGGCCTA,-0.112
7,AGATGGCA,0.0659
8,ACCTGAGC,-0.0036
9,ACGATTAA,0.12
10,ACTCAGAT,0.116
11,TCCGCGCA,0.123
12,AACTATCA,0.203
13,CTGCGCGC,0.1
14,GTATTACA,0.209
15,CGGTGCCA,-0.204
16,AAAGCCCG,-0.283
17,AACATTCG,-0.116
18,AATTACCG,0.196
19,GTTCAGAA,0.0446
20,AACAAGAA,0.237
21,AGTGGATG,0.0228
22,ACAGACCC,-0.168
23,TACCTGAA,0.0646
24,AACGGGTC,-0.251
25,AGCAAGAT,0.0303

row,Sequence,PBM E-score
1,GTTTTGTA,0.29
2,GACGCGAC,0.085
3,CTCCCTTC,-0.304
4,CTCTTGAC,-0.0368
5,ACGAGAGG,-0.0665
6,TACTTCTA,0.0813
7,AATACAGA,0.127
8,CGTACATA,0.212
9,ACCCGACT,-0.16
10,GCGAATCC,-0.229
11,AAGCCGAG,-0.0986
12,AGCGGTCA,-0.0932
13,TCTATTCA,0.201
14,GGCTGACA,0.0337
15,CATTCGGC,-0.0466
16,CCGCCACC,-0.17
17,ACTCTGCG,-0.0141
18,ATAGCGCG,-0.0704
19,ACACTCTG,-0.0657
20,TAGCCCAA,0.0416
21,CAACAAAC,0.078
22,GTGCACAC,0.0143
23,CTAATCCA,-0.0445
24,GAACTATC,-0.114
25,CAGAACCG,-0.0704

row,Sequence,PBM E-score
1,ATTGCCAG,-0.0529
2,AATACCAC,0.0407
3,ACTGTCCT,-0.0455
4,AATTTCGG,0.127
5,AAATTTTG,0.135
6,AGCACTGC,-0.162
7,AAGTCAGC,0.11
8,ATTTGGCG,0.0158
9,AGACTCGA,-0.0935
10,GGTACCAC,-0.172
11,GCATAAGA,0.0584
12,CTCTGGAC,-0.0655
13,CTCGGCTA,-0.0824
14,ATAGTACC,0.00258
15,CTGGTACC,-0.31
16,TTCGCCAA,-0.0795
17,ACAGTGAC,0.297
18,CATCGGCG,-0.104
19,CGTCAATA,0.349
20,ATGCGGAC,0.063
21,GCTTCTCC,-0.254
22,ATGGATCA,-0.00419
23,AAGCCTGG,-0.19
24,CCTGTGGC,-0.117
25,CAAATCCC,-0.233

row,Sequence,PBM E-score
1,CTGTCCGA,-0.076
2,CACAAGAC,-0.15
3,AACAGGCT,-0.13
4,CATATCCA,-0.178
5,AAGAGTAT,-0.0687
6,AGCACAGC,-0.0351
7,AGGCCGAC,-0.347
8,TTGGCCAA,-0.275
9,TAACTCTA,-0.0988
10,GCGCTAGA,-0.0469
11,CAGAACAC,-0.137
12,TGGCTTAA,0.091
13,AAGGTTCA,-0.0958
14,TCGCTAGA,-0.0754
15,GACTTCGC,0.0419
16,CTGTTTGA,0.0716
17,CGCTGTTC,-0.0387
18,AATGTAGG,-0.174
19,CCCTAGAC,-0.277
20,AGTCCCTG,-0.223
21,AGCTGTGG,-0.273
22,ACCGAACG,0.129
23,GCGCGAAA,0.212
24,GTAAAAAC,0.167
25,GCTCCCTA,-0.2

row,Sequence,PBM E-score
1,CCTAAACG,0.00558
2,GCTCGGAA,-0.173
3,AGTTTTAA,0.194
4,AGGCTACG,-0.132
5,CGTTCGTA,0.164
6,ACGTACCG,0.0475
7,GAATGATC,0.142
8,AGGTACCT,-0.2
9,CCTGAATC,-0.017
10,TATGGAGA,-0.0644
11,GCTAAGAA,-0.0426
12,ACCATACA,-0.0921
13,CGTAAGAG,0.185
14,GTTGTTAA,0.283
15,CTTAGCAC,-0.0219
16,GCTATAAA,0.117
17,GACGAAAA,0.329
18,AGTTAGTA,-0.00586
19,ACTGCTAC,0.0057
20,AGCCGGCT,-0.193
21,AGGATCTG,-0.276
22,CTTAGCCC,-0.21
23,AGCATCGG,-0.139
24,GGTTTCCA,-0.233
25,CGTTAGCA,0.123

row,Sequence,PBM E-score
1,ACACGGAA,0.164
2,CAGAGCCA,-0.21
3,ATCCTTAC,0.0997
4,ATAGATGA,0.159
5,CGGGCAAA,-0.161
6,AGGCTTTA,0.0698
7,ACCCGTGG,-0.252
8,ATCGATAA,0.0397
9,CAATATGG,-0.0819
10,AACCTACG,-0.043
11,GTTTTGGA,-0.114
12,CTCGACAA,-0.0188
13,GCATCGTA,0.0338
14,AGTTCGGG,-0.0616
15,GCAGTCTA,-0.229
16,ATCTGCAG,0.0722
17,GCAGCTAA,-0.0537
18,GAAATTAC,0.275
19,CGCAGTAA,0.187
20,GCGAACGC,-0.0992
21,CAGCTTGC,-0.0683
22,CACTGTTC,-0.0822
